Assay results published in patent US20230009608A1, “GRK2 INHIBITORS AND USES THEREOF” (Cygnal Therapeutics, Inc., priority 2020, published 2023).
At least one read-out could not be matched to a standard name with certainty.

system: PAXF1657 control empty vector cell line; experiment: 7-day proliferation assay, PAXF1657 control empty vector cell line (Example 9); assay type: cell-based; conditions: Cell Line: PAXF1657 empty vector (EV) cell line
Experimental: In order to identify compounds specific for GRK2, we generated two isogenic cell line pairs of the pancreatic cancer cell line PAXF1657, a pair of cells stably overexpressing GRK2 cDNA or the control empty vector and a cell line pair of PAXF1657 GRK2 knockout clonal cells versus non-targeting control clonal cells.
Proliferation Assay: Cellular anti-proliferative activity of compounds was assessed by using the pancreatic cancer cell line, PAXF1657, stably overexpressing GRK2 cDNA or the control empty vector, as well as the parental urinary bladder cancer cell line, 5637. In addition, we also took advantage of GRK2 knockout cell lines that were generated via CRISPR. Cell lines were seeded into tissue culture treated, white-walled, 96-well plates at a density of 500 cells/well in RPMI1640 media supplemented with 10% H.I. FBS and penicillin/streptomycin. Plates were incubated overnight at 37° C., 5% CO2 to allow cells to adhere to the wells. GRK2 inhibitors were added to the cells using a 10-point dilution series with a final concentration ranging from 30 μM-0.0002 μM in 0.3% DMSO. At the time of compound addition, a set of plates, that were not treated with compounds, were collected and cell viability was measured using CellTiter-Glo (Promega). CellTiter-Glo reagent was added to the designed plates and luminescence was measuring using a Biotek Synergy plate reader. The compound treated cells were incubated for 3 days at 37° C., 5% CO2. The media was then aspirated from each well and replaced with fresh media containing GRK2 inhibitors. The compound treated cells were then incubated for an additional 4 days at 37° C., 5% CO2. Cell viability was assessed and at end of the 7-day compound treatment by CellTiterGlo.

Row | Structure (SMILES) | D: 7-day proliferation assay: % Minimum GeoMean (%)
1 | CCCn1c(CNc2cncc(C(=O)NCc3ccccc3C(F)(F)F)c2)nnc1-c1ccncn1 | 85.6
2 | Cc1ncsc1CNC(=O)c1cccc(NCc2nnc(-c3ccncn3)n2C)c1 | 54.5
3 | Cc1cccc([C@H](C)NC(=O)c2cccc(NCc3nnc(-c4ccncn4)n3C)c2)n1 | 52.2
4 | CCOc1ncccc1CNC(=O)c1cccc(NCc2nnc(-c3ccncn3)n2C)c1 | 61
5 | C[C@H](NC(=O)c1cccc(NCc2nnc(-c3ccncn3)n2C)c1)c1ccccn1 | 75.3
6 | Cn1c(CNc2cccc(C(=O)NC(C)(C)c3cccnc3)c2)nnc1-c1ccncn1 | 49.3
7 | Cn1c(CNc2cccc(C(=O)NCc3cncs3)c2)nnc1-c1ccncn1 | 69.4
8 | Cn1c(CNc2cccc(C(=O)N[C@H]3CCOc4cc(Cl)ccc43)c2)nnc1-c1ccncn1 | 10.6
9 | Cc1ccc2c(c1)[C@H](NC(=O)c1cccc(NCc3nnc(-c4ccncn4)n3C)c1)CC(C)(C)O2 | 14.9
10 | Cc1ccc2c(c1)[C@@H](NC(=O)c1cccc(NCc3nnc(-c4ccncn4)n3C)c1)CC(C)(C)O2 | 16.3
11 | Cn1c(CNc2cccc(C(=O)N[C@@H]3CCOc4ccc(Br)cc43)c2)nnc1-c1ccncn1 | 1.9
12 | Cn1c(CNc2cccc(C(=O)N[C@H]3CCOc4ccc(Br)cc43)c2)nnc1-c1ccncn1 | 41.7
13 | Cn1c(CNc2cccc(C(=O)N[C@@H]3CCOc4ccc(Cl)cc43)c2)nnc1-c1ccncn1 | 45.4
14 | Cn1c(CNc2cccc(C(=O)N[C@H]3CCOc4ccc(Cl)cc43)c2)nnc1-c1ccncn1 | 10.5
15 | Cn1c(CNc2cccc(C(=O)N[C@@H]3CCOc4c3ccc(F)c4F)c2)nnc1-c1ccncn1 | 50.5
16 | Cn1c(CNc2cccc(C(=O)N[C@H]3CCOc4c3ccc(F)c4F)c2)nnc1-c1ccncn1 | 50.8
17 | COc1cccc2c1OCC[C@H]2NC(=O)c1cccc(NCc2nnc(-c3ccncn3)n2C)c1 | 9.11
18 | COc1cccc2c1OCC[C@@H]2NC(=O)c1cccc(NCc2nnc(-c3ccncn3)n2C)c1 | 71.2
19 | Cn1c(CNc2cccc(C(=O)N[C@@H]3CCOc4cc(F)ccc43)c2)nnc1-c1ccncn1 | 46.2
20 | Cn1c(CNc2cccc(C(=O)N[C@H]3CCOc4cc(F)ccc43)c2)nnc1-c1ccncn1 | 67.9
21 | Cn1c(CNc2cccc(C(=O)N[C@@H]3CCOc4cccnc43)c2)nnc1-c1ccncn1 | 48.7
22 | Cn1c(CNc2cccc(C(=O)N[C@H]3CCOc4cccnc43)c2)nnc1-c1ccncn1 | 59.7
23 | COc1ccc2c(c1)OCC[C@H]2NC(=O)c1cccc(NCc2nnc(-c3ccncn3)n2C)c1 | 50.7
24 | COc1ccc2c(c1)OCC[C@@H]2NC(=O)c1cccc(NCc2nnc(-c3ccncn3)n2C)c1 | 18.7
25 | Cn1c(CNc2cccc(C(=O)N[C@@H]3CCOc4ccc(F)cc43)c2)nnc1-c1ccncn1 | 47.9
26 | Cn1c(CNc2cccc(C(=O)N[C@H]3CCOc4ccc(F)cc43)c2)nnc1-c1ccncn1 | 47.7
27 | Cn1c(CNc2cccc(C(=O)N[C@@H]3CC(C)(C)Oc4ccccc43)c2)nnc1-c1ccncn1 | 31.1

Row | Structure (SMILES) | D: 7-day proliferation assay: % Minimum GeoMean (%)
28 | Cn1c(CNc2cccc(C(=O)N[C@H]3CC(C)(C)Oc4ccccc43)c2)nnc1-c1ccncn1 | 38.1
29 | COc1ccc2c(c1)[C@H](NC(=O)c1cccc(NCc3nnc(-c4ccncn4)n3C)c1)CCO2 | 34.7
30 | COc1ccc2c(c1)[C@@H](NC(=O)c1cccc(NCc3nnc(-c4ccncn4)n3C)c1)CCO2 | 43.1
31 | Cn1c(CNc2cccc(C(=O)N[C@@H]3CCOc4ccc(C(F)(F)F)cc43)c2)nnc1-c1ccncn1 | 23.7
32 | Cn1c(CNc2cccc(C(=O)N[C@H]3CCOc4ccc(C(F)(F)F)cc43)c2)nnc1-c1ccncn1 | 1.07
33 | Cn1c(CNc2cccc(C(=O)N[C@@H]3CCOc4c3cccc4C(F)(F)F)c2)nnc1-c1ccncn1 | 45.9
34 | Cn1c(CNc2cccc(C(=O)N[C@H]3CCOc4c3cccc4C(F)(F)F)c2)nnc1-c1ccncn1 | 46.5
35 | Cn1c(CNc2cccc(C(=O)N[C@@H]3CCOc4cc(C(F)(F)F)ccc43)c2)nnc1-c1ccncn1 | 54
36 | [2H]C([2H])(Nc1cccc(C(=O)NCc2ccncc2CC)c1)c1nnc(-c2ccncn2)n1C | 27.4
37 | CNS(=O)(=O)c1cccc(F)c1CNC(=O)c1cccc(NCc2nnc(-c3ccncc3)[nH]2)c1 | 9.33
38 | O=C(N[C@@H]1COc2cc(F)ccc21)c1cccc(NCc2nnc(-c3ccncc3)[nH]2)c1 | 0.911
39 | O=C(N[C@H]1COc2cc(F)ccc21)c1cccc(NCc2nnc(-c3ccncc3)[nH]2)c1 | 8.79
40 | Cn1c(CNc2cccc(C(=O)N[C@@H](CCO)c3ccccc3)c2)nnc1-c1ccncn1 | 50.5
41 | Cn1c(CNc2cccc(C(=O)N[C@H](CCO)c3ccccc3)c2)nnc1-c1ccncn1 | 26.3
42 | Cn1c(CNc2cccc(C(=O)N[C@@H]3COc4cc(F)ccc43)c2)nnc1-c1ccncn1 | 36.9
43 | Cn1c(CNc2cccc(C(=O)N[C@H]3COc4cc(F)ccc43)c2)nnc1-c1ccncn1 | 0.766
44 | CCCn1c(CNc2cccc(C(=O)NCc3c(F)cccc3S(=O)(=O)NC)c2)nnc1-c1ccncn1 | 16.4
45 | CCCn1c(CNc2cccc(C(=O)N[C@@H]3COc4cc(F)ccc43)c2)nnc1-c1ccncn1 | 74.3
46 | CCCn1c(CNc2cccc(C(=O)N[C@H]3COc4cc(F)ccc43)c2)nnc1-c1ccncn1 | 66
47 | CNS(=O)(=O)c1cccc(F)c1CNC(=O)c1cccc(NCc2nnc3n2CCOc2cnccc2-3)c1 | 22
48 | O=C(N[C@@H]1COCc2ccccc21)c1cccc(NCc2nnc(-c3ccncn3)n2CCO)c1 | 16.5
49 | O=C(N[C@H]1COCc2ccccc21)c1cccc(NCc2nnc(-c3ccncn3)n2CCO)c1 | 18.5
50 | O=C(N[C@@H]1COc2cc(F)ccc21)c1cccc(NCc2nnc(-c3ccncn3)n2CCO)c1 | 35.3
51 | O=C(N[C@H]1COc2cc(F)ccc21)c1cccc(NCc2nnc(-c3ccncn3)n2CCO)c1 | 41.6
52 | O=C(N[C@@H]1COCc2ccccc21)c1cccc(NCc2nnc(-c3ccncc3)n2CCO)c1 | 69.2
53 | O=C(N[C@H]1COCc2ccccc21)c1cccc(NCc2nnc(-c3ccncc3)n2CCO)c1 | 30.7
54 | O=C(N[C@@H]1COCc2c(Cl)cccc21)c1cccc(NCc2nnc(-c3ccncc3)n2CCO)c1 | 48.6
